According to PMC4336329 (PLoS ONE, 2015):
Hit rate of the full screen: of about 310,000 compounds, about 2,200 (0.71%) showed an effect of 50% or more. The effect is printed as a negative number. The list shows a part of the results.

Biological target: human ether-à-go-go-related gene (hERG) potassium channel (human, UniProt Q12809)
Experiment: primary screen, population patch clamp on CHO cells stably expressing hERG

Sequence of human ether-à-go-go-related gene (hERG) potassium channel (Q12809 whole entry, looked up): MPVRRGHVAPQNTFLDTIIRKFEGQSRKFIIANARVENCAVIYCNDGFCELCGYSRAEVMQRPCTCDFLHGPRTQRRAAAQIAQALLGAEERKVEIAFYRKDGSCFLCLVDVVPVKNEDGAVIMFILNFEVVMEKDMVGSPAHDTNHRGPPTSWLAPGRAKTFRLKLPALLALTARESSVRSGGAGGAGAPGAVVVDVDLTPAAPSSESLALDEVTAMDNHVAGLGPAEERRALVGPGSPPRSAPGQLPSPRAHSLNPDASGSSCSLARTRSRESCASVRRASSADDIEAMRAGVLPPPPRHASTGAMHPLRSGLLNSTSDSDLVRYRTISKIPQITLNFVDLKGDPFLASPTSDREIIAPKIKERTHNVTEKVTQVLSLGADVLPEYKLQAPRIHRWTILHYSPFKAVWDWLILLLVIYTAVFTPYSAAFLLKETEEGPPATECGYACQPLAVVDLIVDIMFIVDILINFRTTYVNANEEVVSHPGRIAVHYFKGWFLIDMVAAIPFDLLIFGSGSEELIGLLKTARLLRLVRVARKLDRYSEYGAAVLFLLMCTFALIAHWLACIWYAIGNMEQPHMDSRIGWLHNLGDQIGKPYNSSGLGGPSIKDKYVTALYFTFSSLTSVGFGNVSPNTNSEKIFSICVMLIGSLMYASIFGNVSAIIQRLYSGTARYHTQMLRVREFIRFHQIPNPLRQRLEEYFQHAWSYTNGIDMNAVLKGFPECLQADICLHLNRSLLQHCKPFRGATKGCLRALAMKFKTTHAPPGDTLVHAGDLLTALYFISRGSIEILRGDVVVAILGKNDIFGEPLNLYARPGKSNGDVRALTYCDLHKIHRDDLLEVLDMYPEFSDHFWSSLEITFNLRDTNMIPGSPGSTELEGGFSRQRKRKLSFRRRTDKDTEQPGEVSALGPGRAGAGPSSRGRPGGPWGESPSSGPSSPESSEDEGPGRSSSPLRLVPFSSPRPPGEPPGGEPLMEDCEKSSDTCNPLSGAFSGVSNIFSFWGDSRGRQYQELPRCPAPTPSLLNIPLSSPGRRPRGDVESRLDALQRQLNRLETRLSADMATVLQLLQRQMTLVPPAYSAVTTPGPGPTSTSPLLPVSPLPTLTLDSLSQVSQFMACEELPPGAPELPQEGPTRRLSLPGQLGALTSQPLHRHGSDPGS

Compound | hERG current change (%, negative = inhibition) at 1uM [%]
CCc1ccc(OCc2ccc(C(=O)O)o2)cc1 | 19.1
COC(=O)c1ccc(CNC(=O)C(NC(=O)c2ccco2)C(C)C)cc1 (stereo not shown) | 6.42
COc1ccccc1NS(=O)(=O)c1cccc(NC(=O)c2sc3ccccc3c2Cl)c1 | -15.6
CC1CCCC(C)N1S(=O)(=O)c1ccc(NC(=O)CNC2CCCC2)cc1 (stereo not shown) | 3.78
C=Cn1cc[n+](CC(=O)c2ccc(C)cc2)c1.[Br-] | 7.88
CCN(Cc1ccccc1)C(=O)C1CCN(Cc2sccc2C)CC1.O=C(O)C(=O)O | -13.9
CCOc1ccc(-c2cccc(NC(=O)c3cccs3)c2)nn1 | -1.34
C/C(=N\Nc1nc(Nc2ccccc2)nc(N2CCOCC2)n1)c1cccs1 | 15.8
COc1ccc(NS(=O)(=O)c2cn(C)cn2)c(OC)c1 | 21.5
O=C(C1=C(O)C(=O)N(CCc2ccccc2)C1c1cccs1)c1ccco1 (stereo not shown) | 5.27
COCc1[nH][nH]c(=O)c1C=Nc1ccc(C(F)(F)F)cc1 | -2.02
O=C(c1ccc(Cl)cc1)N1CCN(CCOc2ccccc2)CC1 | -12.4
O=S(=O)(NCc1ccco1)c1cnc(Cl)c(Br)c1 | 14.8
CCCNC(=O)/C(C#N)=C1\N=C(NC(=O)c2cccs2)c2ccccc21 | 17.8
COc1ccc(CC(=O)NCc2n[nH]c(=S)n2-c2cccc(C)c2)cc1 | 18.3
CC(C)Sc1nnc(OC(=O)N(C)C)n1-c1ccccc1 | -1.59
CN[C@@H]1C[C@@H](c2ccc(Cl)c(Cl)c2)c2ccccc21.Cl | 14.1
Cc1cc(/C=N/NC(=O)C(O)(c2ccccc2)c2ccccc2)c(C)n1-c1ccccc1 | 6.18
Cc1cc(Cl)ccc1NC(=O)CCN1C(=O)C2CCCCC2C1=O (stereo not shown) | 15.5
COc1cccc(CNC(=O)CCNC(=O)c2ccccc2OC)c1 | 3.87
C=CCn1cnc2c(nnn2-c2ccc(OC)c(OC)c2)c1=O | 7.37
CCn1c(SCC(=O)NCc2ccccc2)nc2c(c1=O)SC(C)C2 (stereo not shown) | 11.3
COc1ccc(CCC(=O)Nc2cc(Cl)ccc2N2CCN(C)CC2)cc1 | -4.09

Compound | hERG current change (%, negative = inhibition) at 1uM [%]
COC(=O)CSc1ncnc2c1sc1nc(N3CCOCC3)c3c(c12)CCCC3 | 17.5
Cc1csc(CN(C)C(=O)c2cn(Cc3cccc4ccccc34)nn2)n1 | 14.4
CCS(=O)(=O)n1nc(-c2ccc(Cl)cc2)nc1N | 14.5
CN(c1ccccc1)S(=O)(=O)c1ccc(Cl)c(C(=O)OCC(N)=O)c1 | 17.6
COc1cccc(-c2csc(NNC(=O)c3cccs3)n2)c1 | 13
O=C(Nc1nccs1)c1cccc(NC(=O)C2CC2)c1 | 1.93
COc1ccc(C2SCC(=O)N2CCCN(C)C)cc1.Cl (stereo not shown) | 13.1
CN(C)S(=O)(=O)Oc1cccc(C(=O)Nc2ccccc2Cl)c1 | -2.9
COc1ccc(NC(=O)CCCNC(=O)c2ccc(Cl)cc2)cc1OC | 13.1
Cc1cc(NC(=O)c2ccc(F)cc2)n(-c2ccccc2)n1 | -75.3
O=S(=O)(c1cccc(Cn2nnc(-c3ccc(F)cc3)n2)c1)N1CCOCC1 | 5.57
CCCn1c(CN2CCN(C(=O)OCC)CC2)nc2c1c(=O)n(C)c(=O)n2C | 4.58
CC(=O)Nc1sc2c(c1C(c1ccccc1Cl)N1CCN(CCO)CC1)CCCC2 (stereo not shown) | 4.8
COc1ccc(CC(=O)OCCc2cc3cc(OC)c(OC)cc3c(=O)o2)cc1 | 11.2
S=c1nc(-c2cc(Cl)ccc2Cl)[nH][nH]1 | 10.7
CC(NCc1ccccc1C(F)(F)F)C(O)c1ccccc1.Cl (stereo not shown) | 7.43
COC(=O)c1sc(NC(=O)c2ccc(C)o2)nc1C | 4.98
C=CCn1c(SC)nc2sc3c(c2c1=O)CCc1ccccc1-3 | 12.5
Cc1oc(-c2cccs2)nc1CS(=O)CC(=O)NCCCN1CC(C)CC(C)C1 (stereo not shown) | 15.3
CCOC(=O)c1c(NC(=O)C2COc3ccccc3O2)sc(C)c1C (stereo not shown) | 1.09
COC(=O)/C(=C/c1ccc(F)cc1)NC(C)=O | -0.329
O=C(NC(=S)Nc1ccccc1Br)C1CCCC1 | 11.8
CCOC(=O)c1cc(/C(C)=N/OC(=O)c2ccc(Cl)cc2)on1 | 7.68

Compound | hERG current change (%, negative = inhibition) at 1uM [%]
O=C(O)COc1ccccc1/C=N/NC(=O)c1ccc2c(c1)OCCO2 | 4.57
COc1cc2[nH]ccc(=O)c2cc1OC | 6.98
CC(=O)N(C)c1ccc(N=Nc2c(C)[nH]n(C(N)=S)c2=O)cc1 | 5.64
COc1ccc(CCNC(=O)CSc2ccccc2)cc1OC | 13.5
Cc1ccc(NS(=O)(=O)c2cc(OCC(N)=O)c(C)cc2Cl)cc1C | 2.15
COc1ccc(N=C(C)C2=C(O)CSC2=O)cc1 | 4.56
CN(C)c1ccc(/C=N\NC(=S)SCN2C(=O)C3CCC(C)(C2=O)C3(C)C)cc1 (stereo not shown) | 8.65
CCC(=O)NC(c1cccs1)c1cc([N+](=O)[O-])c2cccnc2c1O (stereo not shown) | 5.56
CCNc1nc(NC(C)(C)C)nc(SCC(N)=O)n1 | 7.57
Cc1cc(Cl)ccc1NC(=S)NCCc1ccc(Cl)cc1 | 11.4
CCCc1cc(=O)oc2c(C)c(OCC(=O)NC3CC(C)(C)NC(C)(C)C3)ccc12 | 10.2
CCOC(=O)CSc1nc(C(C)(C)C)cc(C(F)(F)F)c1C#N | 7.34
COc1cc(C(=O)Nc2ccc(F)cc2Cl)ccc1OCC(=O)N1CCOCC1 | 11.2
Cc1nnc(SCC(=O)NCc2ccco2)n1-c1ccccc1 | 21.7
COc1ccc(Cl)cc1NC(=O)c1cccc(N2C(=O)C3CC=CCC3C2=O)c1 (stereo not shown) | 3.43
Cc1c(C)n(CCC#N)c2ccc(Cl)cc12 | 3.74
COCCCNC(=O)/C(=C\c1cccn1C)NC(=O)c1cccs1 | 17.8
Cc1ccc(C)c(N(CC(=O)NN=C2CCN(C)CC2)S(=O)(=O)c2ccccc2)c1 | 5.29
O=C(O)CCCC(=O)N1N=C(c2ccco2)CC1c1ccco1 (stereo not shown) | 11.3
CC(=O)c1cccc(NS(=O)(=O)c2ccc(N/C=C/C(=O)c3ccc(F)cc3)cc2)c1 | 1.07
C=CCN([C@@H](CC(C)C)C(=O)OC)S(=O)(=O)N(CC=C)[C@@H](CC(C)C)C(=O)OC | 18.4
CCN(CC)S(=O)(=O)c1cccc(S(=O)(=O)N2CCCCC2)c1 | 5.86
O=C(Nc1cc(Cl)cc(Cl)c1)N1CCCC1 | 12.7

Compound | hERG current change (%, negative = inhibition) at 1uM [%]
COc1ccc(C(=O)N/C(=C\c2ccccc2)C(=O)NC(CCSC)C(=O)O)cc1 (stereo not shown) | 16.4
Cc1cccc(NC(=O)CSCC(=O)Nc2cccc(S(=O)(=O)N3CCCCCC3)c2)c1 | 9.88
N#Cc1ccc(-c2ccco2)nc1SCc1ccccc1 | 3.03
CCCS(=O)(=O)N1CCCC(C(=O)Nc2ccc3c(c2)CCC3)C1 (stereo not shown) | 7.89
Cc1nc(-c2ccccc2)nc2[nH]c(C(C)C)cc(=O)c12 | -5.88
CN(C(=O)c1ccccn1)c1nnc(-c2ccccn2)s1 | 10.1
CCCCNc1c(-c2ccc(OC)c(SC3CCCCC3)c2)nc2cc(C)ccn12.O=C(O)C(F)(F)F | 11.8
CCCc1nc(SCC(=O)c2ccccc2)c2c(=O)n(C)c(=O)n(C)c2n1 | 7.9
O=C1C(=O)c2ccccc2C(O)=C1c1cccc([N+](=O)[O-])c1 | 13
CCN(C(=O)CSc1nc2c(cnn2-c2ccccc2)c(=O)[nH]1)C1CCS(=O)(=O)C1 (stereo not shown) | 4.66
Cc1ccc(-c2n[nH]c(=S)n2/N=C/c2c(C)[nH]n(-c3ccccc3)c2=O)cc1 | 13.5
COc1ccc(/C=C/C(=O)O)cc1OC | 13.3
Cc1cc(-c2ccccc2N)n[nH]1 | 1.77
Cl.N#Cc1ccc(C(c2nnnn2Cc2ccccc2)N2CCCC2)cc1 (stereo not shown) | 9.21
Cc1nc(N2CCNCC2)c2c3c(sc2n1)CCCC3 | 1.04
CC1(c2nnc(-c3ccc(F)cc3)o2)CC(c2ccccc2)=NO1 (stereo not shown) | 10.7
Cc1ccc(C(O)P(=O)(OC2CCCCC2)OC2CCCCC2)cc1 (stereo not shown) | 7.38
C/C(=N\NC(=O)CSCc1ccc(Cl)cc1)c1ccc2c(c1)OCCO2 | 7.55
Cc1ccc(C2CC(c3ccccc3OC(F)F)Nc3ncnn32)cc1 (stereo not shown) | 2.81
COc1ccc(/C=N/NC(=O)c2ccc(C)cc2)cc1CN1CCN(c2ccc(F)cc2)CC1 | -27
CCNC(=O)c1ccc(CSc2ccc(Cl)cc2)cc1 | 7.92
CC(OC(=O)c1ccccc1OCc1ccc(Cl)cc1)C(N)=O (stereo not shown) | 15.2
